Assay results taken from a collection of fitness landscapes (doi:10.1126/science.1257360).
The other results are listed elsewhere or left out.

B1: PhoQ; a variant is named by its letters at X, in order, P23837 (parent)
chain: MKKLLRLFFPLSLRVRFLLATAAVVLVLSLAYGMVALIGYSVSFDKTTFRLLRGESNLFYTLAKWENNKLHVELPENIDKQSPTMTLIYDENGQLLWAQRDVPWLMKMIQPDWLKSNGFHEIEADVNDTSLLLSGDHSIQQQLQEVREDDDDAEMTHSVAVNVYPATSRMPKLTIVVVDTIPVELKSSYMVWSWFIYVLSANLLLVIPLLWVAAWWSLRPIEALAKEVRELEEHNRELLNPATTRELTSLVRNLNRLLKSERERYDKYRTTLTDLTHSLKTPLXXLQXXLRSLRSEKMSVSDAEPVMLEQISRISQQIGYYLHRASMRGGTLLSRELHPVAPLLDNLTSALNKVYQRKGVNISLDISPEISFVGEQNDFVEVMGNVLDNACKYCLEFVEISARQTDEHLYIVVEDDGPGIPLSKREVIFDRGQRVDTLRPGQGVGLAVAREITEQYEGKIVAGESMLGGARMEVIFGRQHSAPKDE

Variants of: B1
Test: enrichment ratio after two sorts for PhoP signalling (ratio (wild type AVST 3.29)); higher = more functional
Conditions: with PhoP (E. coli)

Variant	enrichment ratio
FDFD	≤ 0.25
PITY	≤ 0.25
NDCG	≤ 0.25
NNDR	≤ 0.25
LWMK	≤ 0.25
GRYQ	≤ 0.25
TAME	15.7
YDRG	≤ 0.25
RTGQ	≤ 0.25
WDSG	≤ 0.25
VMSE	≤ 0.25
KYNM	≤ 0.25
RKHN	≤ 0.25
RTRC	≤ 0.25
HYLF	≤ 0.25
YQTA	≤ 0.25
YTVY	≤ 0.25
AQVW	≤ 0.25
WVFI	≤ 0.25
DGIT	≤ 0.25
NLSF	≤ 0.25
NPRA	≤ 0.25
YDKS	≤ 0.25
VGHF	≤ 0.25

Variant	enrichment ratio
HEAW	≤ 0.25
IAEF	≤ 0.25
FSVE	≤ 0.25
RKKV	≤ 0.25
MFWK	≤ 0.25
IYTP	≤ 0.25
KGSP	≤ 0.25
MVYL	6.13
FFFW	≤ 0.25
FANS	≤ 0.25
FAVI	≤ 0.25
SDPQ	≤ 0.25
GKQD	≤ 0.25
TFTG	13.3
YLGW	0.309
IYPC	≤ 0.25
NVMH	≤ 0.25
DYIS	≤ 0.25
SEAG	12.1
IHCH	≤ 0.25
RLPT	≤ 0.25
FTSK	≤ 0.25
WRFR	≤ 0.25
LRGW	≤ 0.25

Variant	enrichment ratio
HNNW	≤ 0.25
MQFV	1.09
KSTK	≤ 0.25
RMSC	≤ 0.25
IREC	≤ 0.25
QDLH	≤ 0.25
HGWH	≤ 0.25
ENYH	≤ 0.25
WHMR	≤ 0.25
LPVQ	≤ 0.25
TVRP	≤ 0.25
VTSH	≤ 0.25
SIDT	≤ 0.25
RDHC	≤ 0.25
QFHT	≤ 0.25
HNME	≤ 0.25
FYEQ	≤ 0.25
TPCP	≤ 0.25
MDHC	≤ 0.25
TYVV	≤ 0.25
PYVK	≤ 0.25
LNYN	≤ 0.25
WQPY	≤ 0.25
GWQF	≤ 0.25

Variant	enrichment ratio
PEKS	≤ 0.25
NYNN	≤ 0.25
GRTG	≤ 0.25
WPVH	≤ 0.25
PCIL	≤ 0.25
KQKN	≤ 0.25
AYTL	≤ 0.25
SASV	9.73
PTTA	≤ 0.25
PNFI	≤ 0.25
LKHV	≤ 0.25
VWKM	≤ 0.25
LQMD	≤ 0.25
HSKG	≤ 0.25
ISTT	≤ 0.25
RIIQ	≤ 0.25
ECAE	≤ 0.25
GAHL	≤ 0.25
VHIG	≤ 0.25
TCTI	17.1
QPNF	≤ 0.25
WIMF	≤ 0.25
VWQD	≤ 0.25
LLMY	≤ 0.25

Variant	enrichment ratio
EMPD	≤ 0.25
LCYG	≤ 0.25
KNGT	≤ 0.25
YYRY	≤ 0.25
WPTT	≤ 0.25
KNRS	≤ 0.25
NWDT	≤ 0.25
NAHL	≤ 0.25
DWVK	≤ 0.25
NLIT	≤ 0.25
EFVI	≤ 0.25
QSPI	≤ 0.25
MDYF	≤ 0.25
MEKM	≤ 0.25
IWRF	≤ 0.25
DIYM	≤ 0.25
IDCW	≤ 0.25
EMWV	≤ 0.25
VTNQ	≤ 0.25
TYQV	0.297
PQVS	≤ 0.25
FWMW	≤ 0.25
TNTN	2.12
YNRN	≤ 0.25

Variant	enrichment ratio
WRPG	≤ 0.25
INCH	≤ 0.25
PFFD	≤ 0.25
PTTI	≤ 0.25
ITAT	≤ 0.25
GICC	5.57
GALY	9.22
FPEK	≤ 0.25
ITGK	≤ 0.25
MYDR	≤ 0.25
IVHK	≤ 0.25
WPTH	≤ 0.25
FACY	≤ 0.25
PDHW	≤ 0.25
LSSE	≤ 0.25
KMES	≤ 0.25
IKEN	≤ 0.25
RDPK	≤ 0.25
QILF	≤ 0.25
ILFK	≤ 0.25
SLIY	≤ 0.25
TDGC	17.1
QQNR	≤ 0.25
MLWD	≤ 0.25

Variant	enrichment ratio
ERRW	≤ 0.25
DQWQ	≤ 0.25
QGTF	≤ 0.25
LGNN	≤ 0.25
GLEL	≤ 0.25
CSFM	≤ 0.25
HVVG	≤ 0.25
GFIV	≤ 0.25
MAWC	≤ 0.25
NRWN	≤ 0.25
NMSM	≤ 0.25
RCCR	≤ 0.25
YCPS	≤ 0.25
IMYI	≤ 0.25
KALS	≤ 0.25
KPWH	≤ 0.25
LFMP	≤ 0.25
FPVY	≤ 0.25
SKYG	≤ 0.25
YINV	≤ 0.25
NSGG	≤ 0.25
MMMC	≤ 0.25
TTMP	≤ 0.25
ECNS	≤ 0.25

Variant	enrichment ratio
MPVK	≤ 0.25
WHGP	≤ 0.25
PRSH	≤ 0.25
MLFS	≤ 0.25
HVCY	≤ 0.25
WTWR	≤ 0.25
DVPY	≤ 0.25
SRTI	0.799
NCHN	≤ 0.25
PRHW	≤ 0.25
TDSH	10.4
RRNE	≤ 0.25
AIVV	10
TFYY	≤ 0.25
INNC	≤ 0.25
GRGG	≤ 0.25
ASHL	3.75
KKNH	≤ 0.25
LYMM	≤ 0.25
KGIS	≤ 0.25
AQSC	8.82
IQRQ	≤ 0.25
MSWN	8.63
AISW	11.4

Variant	enrichment ratio
VSNN	≤ 0.25
SGAH	8.44
LTHF	2.21
AWRS	≤ 0.25
FIHM	≤ 0.25
AVNF	3.27
FFRI	≤ 0.25
IYIS	≤ 0.25
TMIE	≤ 0.25
WPAY	≤ 0.25
WNQM	≤ 0.25
YTMS	≤ 0.25
WMSA	≤ 0.25
AFQR	≤ 0.25
MSPG	≤ 0.25
KYEL	≤ 0.25
AQND	≤ 0.25
YKKE	≤ 0.25
APPC	≤ 0.25
VGDR	≤ 0.25
SYCA	≤ 0.25
QCME	≤ 0.25
SDVS	≤ 0.25
SGYA	≤ 0.25

Variant	enrichment ratio
INIP	≤ 0.25
IEHL	≤ 0.25
QMKL	≤ 0.25
KEYW	≤ 0.25
FTYP	≤ 0.25
GPFD	≤ 0.25
ARRW	≤ 0.25
RSVT	≤ 0.25
QHNN	≤ 0.25
GRPF	≤ 0.25
TCPI	≤ 0.25
WRRH	≤ 0.25
DDPR	≤ 0.25
FESQ	≤ 0.25
IRDY	≤ 0.25
QNWK	≤ 0.25
KVVA	≤ 0.25
TLAD	≤ 0.25
ERMG	≤ 0.25
PEAS	≤ 0.25
KQRY	≤ 0.25
IAHG	≤ 0.25
WHLY	≤ 0.25
SHSR	≤ 0.25

Variant	enrichment ratio
IMCE	≤ 0.25
GDWE	≤ 0.25
ARIS	≤ 0.25
HFYE	≤ 0.25
IYWL	0.258
DKAA	≤ 0.25
LASI	≤ 0.25
NYLE	≤ 0.25
SWNI	≤ 0.25
SVSL	7.94
FFDM	≤ 0.25
DCYM	≤ 0.25
HHHW	≤ 0.25
VVCM	≤ 0.25
LNMF	0.285
LELC	2.34
VKVC	≤ 0.25
GIRD	≤ 0.25
KHHW	≤ 0.25
QTHH	≤ 0.25
DGVH	≤ 0.25
YYPT	≤ 0.25
MTGT	≤ 0.25
LEIH	≤ 0.25

Variant	enrichment ratio
TAEL	7.72
MEMS	63.4
PKIN	≤ 0.25
RAYS	≤ 0.25
FSEE	≤ 0.25
EPLI	≤ 0.25
LVNC	≤ 0.25
PNLW	≤ 0.25
HRRP	≤ 0.25
PCQR	≤ 0.25
TFNF	≤ 0.25
WYGR	≤ 0.25
IHHK	≤ 0.25
YLHG	≤ 0.25
TSHG	6.17
AFLS	2.64
ETRG	≤ 0.25
ESGF	≤ 0.25
MGTE	≤ 0.25
EGSL	≤ 0.25
WSMK	≤ 0.25
DIGK	≤ 0.25
HKHA	≤ 0.25
LVDE	≤ 0.25

Variant	enrichment ratio
DDVN	≤ 0.25
IAKI	≤ 0.25
GALF	8.62
QWIL	≤ 0.25
RCDL	≤ 0.25
VQWV	≤ 0.25
GTDY	≤ 0.25
NDYG	≤ 0.25
VGGQ	≤ 0.25
WIKY	≤ 0.25
EVHD	≤ 0.25
ESDM	≤ 0.25
IRPK	≤ 0.25
KLLQ	≤ 0.25
KEDR	≤ 0.25
VYPG	≤ 0.25
LDLH	≤ 0.25
HMTY	≤ 0.25
